# Assay results published in PubChem BioAssay AID686979 (National Center for Advancing Translational Sciences (NCATS), 2013).
# The campaign covered roughly 420,000 compounds. About 50,000 (12%) were called active. Inconclusive results, whose numbers are uncertain, are shown with a selection of clear calls. The call rests on the fitted dose curve; in most records, active means well fitted inhibition curve with a large enough effect; inconclusive means small, poorly fitted or top-dose-only effect; inactive means flat fitted curve, though single readings scatter. No potency is given beside an inconclusive call; the fits are too rough.
# Test: qHTS for Inhibitors of human tyrosyl-DNA phosphodiesterase 1 (TDP1): qHTS in cells in presence of CPT; further: nearly all actives have a fitted effect of over 55% in size
# Settings: chicken DT40 Tdp1-/-;hTDP1 cells + 20 nM CPT, ATP luminescence, 48 h; activity change, negative = growth inhibition: at 46.2 µM (top of the series)
# In short: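 Chicken DT40 Tdp1-/- cells complemented with human TDP1, 400 cells/well, exposed to compounds plus 20 nM camptothecin for at least 48 h at 37 C; viability read as ATP content by CellTiter-Glo luminescence.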
# On the % scale 0 is the no-effect control and ±100 the full control effect; potency means the concentration at half of the fitted maximal effect; tags describe the fitted curve by direction and shape.
SMILES,"activity change, negative = growth inhibition",Potency
COc1ccc(Cl)c(OC)c1C(=O)NC(=O)Nc1c(F)cc(F)cc1F,inactive: 5.89%,–
Cc1noc(C)c1C(=O)OCC(=O)/C=C1/N(C)c2ccccc2C1(C)C,–,"inconclusive [inhibitor, single point]"
CC(=O)Nc1ccc(OC[C@@H](O)CNC(C)C)cc1,inactive: 21.3%,–
CCN(CC(=O)Nc1ccccc1C(=O)NC1CC1)Cc1cccs1,–,"inconclusive [inhibitor, single point]"
COc1ccc(C(=O)OCC(=O)NC(=O)NC2CCCC2)c(OC)c1,–,"inconclusive [inhibitor, single point]"
Cc1ccc(C)c(N2CCN(C(=O)C3CCN(S(=O)(=O)c4ccc5[nH]c(=O)oc5c4)CC3)CC2)c1,–,active: 23.1 µM
O=C(CSc1ncn[nH]1)Nc1ccnc2ccccc12,–,"inconclusive [inhibitor, partial curve]"
CC(C)C[C@@H]1CC2=C(C(=O)OC(C)(C)O2)[C@H](c2ccc(Cl)cc2)O1,–,"inconclusive [inhibitor, single point]"
O=C1COc2ccccc2C(c2nc3ccccc3[nH]2)N1Cc1ccccc1 (stereo not given),–,"inconclusive [inhibitor, single point]"
Cc1nc(COC(=O)c2cc(O)c3ccccc3c2O)cs1,–,"inconclusive [inhibitor, single point]"
CCOC(=O)c1c(C)c(C(=O)Nc2cc(OC)ccc2OC)c(C)n1CC,–,active: 6.51 µM
O=[N+]([O-])c1ccc(/C=N/Nc2ccc3ccccc3c2)o1,–,"inconclusive [inhibitor, partial curve]"
COc1ccc2[nH]cc(S(=O)(=O)c3ccc(F)cc3)c(=O)c2c1,–,"inconclusive [inhibitor, partial curve]"
CC(C)(C)C1CCC2(CC1)SCC(=O)N2c1ccccc1 (stereo not given),–,"inconclusive [inhibitor, single point]"
COc1ccc(NC(=O)c2cnc(C)cn2)cc1-n1cnnn1,inactive: -14.4%,–
COC(=O)c1ccc(NC(=O)CSC2=Nc3ccccc3C3CC=NN23)cc1 (stereo not given),–,active: 23.1 µM
O=C(C(Cc1ccccc1)NS(=O)(=O)c1cccc2cccnc12)N1CCc2ccccc21 (stereo not given),–,"inconclusive [inhibitor, partial curve, poor fit]"
CCOc1ccc(C2C(=O)N(C3CCCCCC3)CC(=O)N2CCC2=CCCCC2)cc1OC (stereo not given),–,active: 23.1 µM
CCOc1ccc(CNC(=O)Cn2nc(C)n3cccc3c2=O)cc1,inactive: -6.83%,–
Cc1ccc(NC(=O)CSc2nc3ncc(Cl)cc3[nH]2)c(C)c1,–,"inconclusive [inhibitor, single point]"
CCc1ccc(-n2nc3ccc(NC(=O)c4cc(Cl)c(OC)c(Cl)c4)cc3n2)cc1,–,"inconclusive [inhibitor, full curve]"
O=[N+]([O-])c1ccc(CCNc2cccc3ccccc23)c([N+](=O)[O-])c1,–,"inconclusive [inhibitor, single point]"
COc1ccc(/C=N/n2c(SC)nnc(C(C)(C)C)c2=O)c(OC)c1,inconclusive: -30.2% [inhibitor],–
CC(O)CCC(=O)NNC1CC(=O)N(c2ccccc2)C1=O (stereo not given),inactive: 17.6%,–
Cc1ccc(Cl)cc1N1CCN(Cc2nnnn2Cc2ccco2)CC1,–,"inconclusive [inhibitor, single point]"

SMILES,"activity change, negative = growth inhibition",Potency
CCCCn1cc(S(=O)(=O)c2ccc(OCC)cc2)c(=O)c2cc(OC)c(OC)cc21,–,"inconclusive [inhibitor, single point]"
CN(C(=O)c1cccc(C(F)(F)F)c1)C1CCCc2ccccc21 (stereo not given),–,"inconclusive [inhibitor, single point]"
COCCNC(=O)Cn1nc(-c2ccc(C)cc2)ccc1=O,inactive: 3.06%,–
CCOc1ccc(N2CC(C)Cn3c2nc2c3c(=O)n(CC(=O)O)c(=O)n2C)cc1 (stereo not given),inactive: -22%,–
COc1cc(NC(=O)c2noc3c2CCC3)c(OC)cc1Cl,inactive: -22.5%,–
CC(=O)c1ccc(NC(=O)/C(=C\c2ccco2)NC(=O)c2ccco2)cc1,inactive: 3.96%,–
Cc1ccc(C(=O)Nc2cccc(NC(=O)c3ccc(C)cc3)n2)cc1,inactive: -11.3%,–
COc1ccc2nc(N/C(N)=N/C(=S)Nc3cccc(C)c3)nc(C)c2c1,–,"inconclusive [inhibitor, single point]"
CCOc1ccc(-n2c(O)c(/C=N/c3ccnn3Cc3ccncc3)c3ccccc3c2=O)cc1,–,"inconclusive [inhibitor, single point]"
C[C@@H]1CN([C@H](C)CO)C(=O)c2c(c3ccccc3n2C)-c2ccccc2CO[C@H]1CN(C)C(=O)c1cc(Cl)cc(Cl)c1,inactive: -24.5%,–
CCOC(=O)CSc1nnnn1-c1cc(OC)ccc1OC,inactive: -11.2%,–
O=C(N/N=C/c1cccnc1)c1ccccc1[N+](=O)[O-],inactive: -2.41%,–
CC(=O)c1cccc(NC(=O)C2CC(=O)N(c3ccc4c(c3)OCCO4)C2)c1 (stereo not given),inactive: -13.9%,–
CC1CCN(C(=O)CN2C(=O)NC(C)(c3ccc4ccccc4c3)C2=O)CC1 (stereo not given),–,active: 18.4 µM
CCOc1ccc2nc(N3CCC(C(=O)Nc4nnc(CC)s4)CC3)sc2c1,inactive: -25.8%,–
O=C(NC(c1ccccc1)c1ccccc1)c1ccc(S(=O)(=O)C(F)F)cc1,inactive: 9.54%,–
COc1ccc(CN2CCc3nc(Nc4ccccc4)ncc3C2)c(OC)c1OC,–,active: 16.4 µM
CC(C)NC(=O)C1(C)CCCCN1Cc1cccc(C(F)(F)F)c1 (stereo not given),–,"inconclusive [inhibitor, single point]"
O=C(COC(=O)Cc1ccccc1F)Nc1ccc(SC(F)F)cc1,inactive: 7.98%,–
CCOCCCN(C)C1CCN(C(=O)c2oc3ccccc3c2NC(=O)c2cccc([N+](=O)[O-])c2)CC1,–,"inconclusive [inhibitor, single point]"
CCOc1c(Br)cc(/C=C(\C#N)C(=O)NC2CC2)cc1OC,–,"inconclusive [inhibitor, single point]"
COCCN1Cc2cccc(C(=O)Nc3ccc(C)c(F)c3)c2C1=O,–,"inconclusive [inhibitor, single point]"
c1ccc(C2NCCc3ccccc32)cc1 (stereo not given),–,"inconclusive [inhibitor, single point]"
CCc1sc(C(C2C(=O)CC(C)(C)CC2=O)C2C(=O)CC(C)(C)CC2=O)cc1[N+](=O)[O-],–,active: 4.11 µM
CN(CC(=O)Nc1ccccc1C(F)(F)F)C(=O)Cn1c(=O)oc2ccccc21,inactive: 4.15%,–

SMILES,"activity change, negative = growth inhibition",Potency
COc1ccc(Cl)cc1NC(=O)Nc1cccc([N+](=O)[O-])c1C,–,"inconclusive [inhibitor, single point]"
CN(CCNC(=O)c1cccc(N2CCCC2=O)c1)Cc1ccccc1,inactive: -20%,–
NN=C(c1cccc([N+](=O)[O-])c1)c1cccc([N+](=O)[O-])c1,inactive: 1.23%,–
CC1(C)CC(=O)C/C(=N/Nc2nc3ccccc3s2)C1,–,"inconclusive [inhibitor, single point]"
CCCOc1ccc(Cc2c(Cl)nc(SC)nc2OC)cc1,inactive: 9.3%,–
Cc1cccc(N2CCN(CCNC(=O)c3cc4c(s3)CS(=O)(=O)C4)CC2)c1C,–,"inconclusive [inhibitor, single point]"
COc1ccc(N2CCN(CCNC(=O)CCCn3c(=O)[nH]c4cc(Cl)ccc4c3=O)CC2)cc1,inconclusive: -33.4% [inhibitor],–
Cc1ccc(S(=O)(=O)N(C)C)cc1NC(=S)N1CCc2ccccc21,inactive: -26.2%,–
Cn1c(=O)c2cc3c(nc2n(C)c1=O)CC(c1ccccc1)CC3=O (stereo not given),–,"inconclusive [inhibitor, single point]"
Cc1cccc(NC(=O)CCN2CCN(C)CC2)c1,inactive: 3.16%,–
COc1ccc(Nc2nc3c(S(=O)(=O)c4ccccc4)nnn3c3ccc(Cl)cc23)c(OC)c1,inactive: -16%,–
COC(=O)NCc1ccc(Cl)c(Cl)c1,inconclusive: -31.9% [inhibitor],–
O=C(Cc1ccccc1F)Nc1nc(-c2cccs2)cs1,–,"inconclusive [inhibitor, single point]"
COc1cccc(-c2ccc(NC(=O)C3CCCN(Cc4cnn(C)c4)C3)cc2)c1 (stereo not given),–,"inconclusive [inhibitor, partial curve]"
CC(C)(C)NC[C@H](O)COc1cccc2c1CCCC2=O,–,inactive
Cc1cc(C(=O)COc2cccnc2[N+](=O)[O-])c(C)n1-c1ccccc1,–,"inconclusive [inhibitor, single point]"
O=C1C(Cc2ccc(O)cc2)NC(=S)N1Cc1ccccc1 (stereo not given),inactive: -3.2%,–
CS(=O)(=O)c1ccc2nc(NC(=O)c3cc(-c4ccccc4)nn3-c3ccccc3)sc2c1,–,"inconclusive [inhibitor, single point]"
CCOC(=O)c1ccc(NC(=S)N(CCCN2CCCCCC2)Cc2ccco2)cc1,–,"inconclusive [inhibitor, single point]"
Fc1ccc(Sc2nc(-c3ccccc3)nnc2C(F)(F)F)cc1,–,active: 5.8 µM
COC(=O)c1ccc(CN(C(C)=O)c2ccccc2)o1,inactive: -13.4%,–
CCCCOc1ccc(C(=O)NCC(=O)N(C)CC(=O)Nc2ccc(N3CCOCC3)cc2)cc1,–,"inconclusive [inhibitor, single point]"
COc1ccc(NC(=O)c2c(C(F)(F)F)nn(C)c2SCc2ccccc2)cc1,–,"inconclusive [inhibitor, single point]"
COc1ccccc1OCC(=O)Nc1nnc(-c2ccco2)s1,inactive: -7.29%,–
CC(=O)c1cccc(NC(=O)C2CCCN(S(C)(=O)=O)C2)c1 (stereo not given),inactive: -0.282%,–
